The supplement of paper PMC4967469

Experiments:
Test in all cases: Viability of human cancer cell lines after 72 h of drug (GDSC screen)
TGX221 = compound: Cc1cc(C(C)Nc2ccccc2)c2nc(N3CCOCC3)cc(=O)n2c1 [TGX221]; conditions: top dose 10 µM
Description: (§1)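 Human cancer cell lines in 384-well plates, medium with 10% serum, drug for 72 h over a 256-fold dose range (nine 2-fold or five 4-fold steps up to the top dose). Adherent lines were fixed and stained with the nucleic acid dye Syto60, suspension lines read with resazurin; signal relative to control wells, capped at 0 and 100%. One two-parameter sigmoid per drug and line, fitted in a mixed model over all curves with the slope shared within a line.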

PD-173074 = compound: CCN(CC)CCCCNc1ncc2cc(-c3cc(OC)cc(OC)c3)c(NC(=O)NC(C)(C)C)nc2n1 [PD-173074]; conditions: top dose 2 µM; top dose inferred
Description: as §1

Lapatinib = compound: CS(=O)(=O)CCNCc1ccc(-c2ccc3ncnc(Nc4ccc(OCc5cccc(F)c5)c(Cl)c4)c3c2)o1 [Lapatinib]; conditions: top dose 2 µM
Description: as §1

SB590885 = compound: CN(C)CCOc1ccc(-c2nc(-c3ccncc3)c(-c3ccc4c(c3)CC/C4=N\O)[nH]2)cc1 [SB590885]; conditions: top dose 5 µM; top dose inferred
Description: as §1

Cell Line	AUC (TGX221)	IC50 (TGX221) [µM]	AUC (PD-173074)	IC50 (PD-173074) [µM]	AUC (Lapatinib)	IC50 (Lapatinib) [µM]	AUC (SB590885)	IC50 (SB590885) [µM]
A4-Fuk (B-cell lymphoma, suspension)	0.981	> 10	0.737	0.614	0.957	> 2	0.986	> 5
LB831-BLC (bladder, adherent)	0.928	> 10	0.978	> 2	0.979	> 2	0.987	> 5
NCI-H69 (small cell lung carcinoma, suspension)	0.965	> 10	0.986	> 2	0.975	> 2	0.986	> 5
SU-DHL-4 (B-cell lymphoma, suspension)	0.914	7.06	0.997	> 2	0.997	> 2	0.997	> 5
OCI-AML5 (acute myeloid leukaemia, suspension)	0.971	> 10	0.988	> 2	0.987	> 2	0.989	> 5
DMS-114 (small cell lung carcinoma, adherent)	0.967	> 10	0.791	1.05	0.983	> 2	0.985	> 5
COR-L279 (small cell lung carcinoma, suspension)	0.952	> 10	0.991	> 2	0.991	> 2	0.991	> 5
SUP-B15 (lymphoblastic leukaemia, suspension)	0.972	> 10	0.953	> 2	0.977	> 2	0.974	> 5
NOS-1 (osteosarcoma, adherent)	0.906	> 10	0.921	> 2	0.954	> 2	0.947	> 5
EKVX (lung adenocarcinoma, adherent)	0.895	> 10	0.959	> 2	0.605	0.337	0.969	> 5
WIL2-NS (lymphoid neoplasm, suspension)	0.992	> 10	0.991	> 2	0.992	> 2	0.987	> 5
NEC8 (testis, adherent)	0.979	> 10	0.706	0.427	0.99	> 2	0.962	> 5
SCH (stomach, adherent)	0.988	> 10	0.988	> 2	0.988	> 2	0.984	> 5
VAL (B-cell lymphoma, suspension)	0.956	> 10	0.976	> 2	0.977	> 2	0.986	> 5
MZ7-mel (melanoma, adherent)	0.903	> 10	0.987	> 2	0.983	> 2	0.857	4.28
RCC10RGB (kidney, adherent)	0.773	9	0.97	> 2	0.897	> 2	0.972	> 5
MHH-NB-11 (neuroblastoma, adherent)	0.978	> 10	0.985	> 2	0.983	> 2	0.985	> 5
BV-173 (chronic myeloid leukaemia, suspension)	0.981	> 10	0.905	> 2	0.985	> 2	0.891	4.63
HT (B-cell lymphoma, suspension)	0.93	> 10	0.981	> 2	0.989	> 2	0.962	> 5
RXF393 (kidney, adherent)	0.714	3.24	0.93	> 2	0.962	> 2	0.978	> 5
RPMI-8866 (chronic myeloid leukaemia, suspension)	0.988	> 10	0.94	> 2	0.988	> 2	0.915	> 5
A253 (head and neck, adherent)	0.985	> 10	0.989	> 2	0.813	1.04	0.989	> 5
D-502MG (glioma, adherent)	0.911	> 10	0.953	> 2	0.804	1.76	0.907	> 5
L-363 (myeloma, suspension)	0.99	> 10	0.947	> 2	0.991	> 2	0.973	> 5
KS-1 (glioma, adherent)	0.811	6.98	0.951	> 2	0.815	1.46	0.98	> 5
SU-DHL-16 (B-cell lymphoma, suspension)	0.983	> 10	0.995	> 2	0.991	> 2	0.996	> 5
H-EMC-SS (chondrosarcoma, adherent)	0.97	> 10	0.574	0.211	0.979	> 2	0.538	0.409
CP66-MEL (melanoma, adherent)	0.974	> 10	0.986	> 2	0.986	> 2	0.977	> 5
SW962 (urogenital system, adherent)	0.972	> 10	0.72	0.619	0.791	1.15	0.982	> 5
EW-16 (Ewing sarcoma, adherent)	0.98	> 10	0.936	> 2	0.938	> 2	0.931	> 5

Lines with a small IC50 respond at low doses; where the fit passes the top or lowest dose, that dose stands as a limit. AUC sums up the same curve from the lowest dose to the 256-fold higher top dose: 1 means no effect, lower means more sensitive. For part of these data: Where the top dose is marked as inferred, it is not printed in the source and was worked back from the curve model.
